The list shows a part of the results. Each Rep nickase domain was tested in vitro on the same pool of single strands (3 µM enzyme, 1 h, 37 °C); shown is the middle of each 90-letter strand. Values are log2 of uncut reads against the no-enzyme pool; the lower, the more was cut; hits are not called. The scaling is to total reads; uncut strands gain when others are lost, and binding without cutting may add a little.
Columns and labels:
Assay in all cases: uncleaved DNA left, log2 of reads against the no-enzyme library (log2 ratio); higher = less cleavage (more negative = more Rep cleavage of the k-mer); sequences stand for … in CTCGTCCG…ACCGGAGA
[1] = tested on: T1, Rep nickase domain of Muscovy duck circovirus
T1 sequence (protein, residues 1-111, tag omitted): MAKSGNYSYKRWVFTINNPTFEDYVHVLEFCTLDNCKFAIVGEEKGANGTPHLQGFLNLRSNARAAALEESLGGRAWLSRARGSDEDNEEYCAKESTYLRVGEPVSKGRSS
Procedure: (§1)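 A pool of 90-nt single-stranded DNAs with seven random bases just before the constant AC of the nick site (name = the seven bases) was cut by 3 µM recombinant His6-SUMO-tagged Rep nickase domain (300 nM DNA, 50 mM HEPES pH 8.0, 50 mM NaCl, 1 mM MnCl2, 1 h, 37 °C, three replicates). Uncut DNA was amplified and sequenced.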

[2] = tested on: T2, Rep nickase domain of banana bunchy top virus
T2 sequence (protein, residues 1-94, tag omitted): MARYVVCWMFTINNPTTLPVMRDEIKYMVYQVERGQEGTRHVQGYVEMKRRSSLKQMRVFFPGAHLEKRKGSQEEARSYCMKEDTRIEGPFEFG
Procedure: as §1

[3] = tested on: T3, Rep nickase domain of cabbage leaf curl virus
T3 sequence (protein, residues 1-116, tag omitted): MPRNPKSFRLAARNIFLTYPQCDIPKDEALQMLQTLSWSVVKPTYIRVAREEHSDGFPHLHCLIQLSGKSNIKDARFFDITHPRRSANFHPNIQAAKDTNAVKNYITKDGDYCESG
Procedure: as §1

[4] = tested on: T4, Rep nickase domain of chickpea chlorotic dwarf virus
T4 sequence (protein, residues 1-124, tag omitted): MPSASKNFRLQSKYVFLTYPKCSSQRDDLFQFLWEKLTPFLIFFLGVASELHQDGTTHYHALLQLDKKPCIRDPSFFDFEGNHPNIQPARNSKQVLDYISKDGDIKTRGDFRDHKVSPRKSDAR
Procedure: as §1

[5] = tested on: T5, Rep nickase domain of faba bean necrotic yellows virus
T5 sequence (protein, residues 1-98, tag omitted): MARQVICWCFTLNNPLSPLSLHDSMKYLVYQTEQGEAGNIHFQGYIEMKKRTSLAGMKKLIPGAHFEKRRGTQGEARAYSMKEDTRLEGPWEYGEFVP
Procedure: as §1

[6] = tested on: T6, Rep nickase domain of maize striate mosaic virus
T6 sequence (protein, residues 1-117, tag omitted): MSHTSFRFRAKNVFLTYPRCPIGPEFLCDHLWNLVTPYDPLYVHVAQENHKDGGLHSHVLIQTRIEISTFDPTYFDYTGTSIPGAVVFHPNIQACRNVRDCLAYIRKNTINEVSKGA
Procedure: as §1

[7] = tested on: T7, Rep nickase domain of porcine circovirus 2
T7 sequence (protein, residues 2-116, tag omitted): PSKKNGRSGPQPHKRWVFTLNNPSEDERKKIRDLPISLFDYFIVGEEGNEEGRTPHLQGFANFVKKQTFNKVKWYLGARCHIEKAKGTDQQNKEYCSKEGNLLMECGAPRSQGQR
Procedure: as §1

[8] = tested on: T8, Rep nickase domain of tomato golden mosaic virus
T8 sequence (protein, residues 1-124, tag omitted): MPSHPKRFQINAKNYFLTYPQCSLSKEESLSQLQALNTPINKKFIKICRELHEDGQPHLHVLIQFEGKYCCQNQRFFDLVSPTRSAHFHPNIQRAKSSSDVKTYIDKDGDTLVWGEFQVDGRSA
Procedure: as §1

[9] = tested on: T9, Rep nickase domain of tomato yellow leaf curl virus
T9 sequence (protein, residues 1-136, tag omitted): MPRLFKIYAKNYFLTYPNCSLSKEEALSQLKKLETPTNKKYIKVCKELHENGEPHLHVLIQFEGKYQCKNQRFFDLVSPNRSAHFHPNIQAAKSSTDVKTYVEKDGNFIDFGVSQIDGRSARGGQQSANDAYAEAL
Procedure: as §1

[10] = tested on: T10, Rep nickase domain of wheat dwarf virus
T10 sequence (protein, residues 1-137, tag omitted): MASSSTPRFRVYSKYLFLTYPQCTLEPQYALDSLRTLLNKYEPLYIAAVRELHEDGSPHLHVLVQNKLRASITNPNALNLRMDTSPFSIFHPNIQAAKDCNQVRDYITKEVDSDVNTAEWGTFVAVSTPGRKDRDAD
Procedure: as §1

Row | Sequence | uncleaved DNA left (log2) [1] | uncleaved DNA left (log2) [2] | uncleaved DNA left (log2) [3] | uncleaved DNA left (log2) [4] | uncleaved DNA left (log2) [5] | uncleaved DNA left (log2) [6] | uncleaved DNA left (log2) [7] | uncleaved DNA left (log2) [8] | uncleaved DNA left (log2) [9] | uncleaved DNA left (log2) [10]
1 | CGTCTCC | -0.0517 | -0.0198 | 0.143 | 0.114 | -0.0664 | 1.17 | 0.0682 | -0.0701 | 0.0557 | -0.00515
2 | CAAGAGG | 0.077 | 0.173 | 0.217 | 0.909 | 0.144 | 0.163 | 0.203 | 0.16 | 0.0697 | 0.176
3 | GTGGGAT | 0.0551 | 0.103 | 0.522 | 1.69 | 0.113 | 2.02 | 0.225 | 0.121 | -0.056 | 0.0725
4 | TGTACTA | -0.105 | -0.0379 | 0.0364 | -0.472 | -0.168 | 0.56 | -0.198 | -0.132 | 0.0523 | 0.0517
5 | TCCAGCT | 0.0397 | -0.0186 | -0.212 | -0.745 | 0.0645 | -0.589 | 0.0716 | -0.0646 | -0.208 | 0.00837
6 | AACGTCG | 0.11 | 0.0804 | -0.721 | -0.38 | 0.0523 | -1.05 | 0.209 | -0.0543 | 0.083 | -0.0145
7 | TGTGTTC | 0.139 | 0.0224 | 0.372 | 0.371 | 0.0347 | 1.19 | 0.0236 | 0.105 | 0.125 | 0.108
8 | GAAGGTT | 0.172 | 0.0397 | 0.248 | 0.722 | 0.0589 | 1.76 | 0.186 | 0.305 | -0.0942 | 0.127
9 | TCATGTC | 0.0746 | -0.0481 | -0.0739 | -0.417 | 0.101 | -1.03 | 0.0401 | 0.055 | 0.0255 | 0.0114
10 | CGCAGGC | 0.0725 | -0.0189 | 0.0846 | 0.155 | 0.153 | -0.432 | 0.214 | -0.0479 | 0.0407 | 0.00948
11 | GTAGTTT | 0.151 | 0.11 | 0.377 | 0.863 | 0.0404 | 1.8 | 0.145 | 0.0818 | 0.0815 | 0.166
12 | ATACACC | -0.0671 | -0.0331 | -0.0876 | -0.806 | 0.027 | -0.672 | -0.166 | -0.0949 | -0.104 | -0.0719
13 | ACCGGTT | 0.0485 | -0.109 | 0.0349 | -0.198 | 0.0717 | -0.239 | 0.134 | 0.00509 | 0.000323 | -0.0648
14 | CGGTGGG | 0.0478 | -0.0401 | -0.482 | -0.427 | -0.0112 | -0.562 | 0.0741 | -0.0459 | 0.0693 | -0.035
15 | ATCCCCA | -0.217 | -0.182 | -0.0875 | -0.933 | -0.165 | -0.484 | -0.356 | -0.217 | -0.182 | -0.102
16 | CAAGGAG | 0.0462 | -0.0519 | -0.0879 | 0.598 | -0.00474 | -0.362 | 0.2 | 0.0917 | -0.0744 | -0.0359
17 | CCAGACG | -0.0036 | 0.0252 | -0.837 | -0.633 | 0.035 | -0.981 | 0.205 | 0.0398 | -0.0507 | 0.101
18 | TGTTGTG | 0.00669 | -0.0655 | -0.817 | 0.0752 | -0.062 | -0.801 | 0.0334 | -0.0529 | -0.0131 | -0.0494
19 | GAACACC | -0.0912 | -0.00551 | 0.185 | 0.196 | -0.0427 | 0.874 | -0.0403 | -0.0441 | -0.0468 | 0.0319
20 | AGAGAAC | 0.05 | -0.121 | 0.158 | 0.39 | 0.0899 | 0.343 | -0.00491 | 0.0293 | 0.0243 | -0.0484
21 | GCGGAAG | 0.076 | -0.0814 | -0.246 | 0.213 | 0.00599 | -0.389 | 0.0913 | -0.00938 | 0.0355 | -0.00285
22 | TCCTATG | 0.0331 | 0.0012 | -0.465 | -0.691 | -0.174 | -0.983 | 0.000262 | -0.102 | -0.0527 | -0.158
23 | TACAAAC | -0.0676 | 0.0289 | -0.0494 | -0.572 | 0.0589 | -0.707 | 0.117 | 0.0302 | 0.0417 | 0.0139
24 | CCGGCTC | -0.0212 | -0.144 | -0.00289 | -0.0677 | -0.19 | 0.305 | -0.0843 | -0.138 | -0.19 | -0.476
25 | GTGGTCT | -0.0449 | -0.183 | 0.569 | 1.05 | -0.108 | 1.92 | 0.00605 | 0.0572 | -0.0746 | -0.0275
26 | TGCCCTG | 0.0593 | -0.124 | 0.0117 | 0.253 | -0.107 | 0.995 | -0.0494 | -0.131 | -0.0291 | -0.0215
27 | GTAAAAC | -0.0102 | 0.0711 | 0.264 | 0.773 | -0.0025 | 1.36 | 0.0655 | 0.11 | 0.164 | 0.0539
28 | TATGGAA | 0.249 | 0.0891 | 0.414 | 0.963 | 0.192 | 1.09 | 0.193 | 0.184 | 0.0462 | 0.18
29 | GGCGTAA | -0.0323 | 0.031 | 0.0962 | 0.599 | 0.0569 | 0.86 | -0.0365 | 0.0394 | 0.0602 | 0.02
30 | CCCTACG | 0.122 | 0.106 | -0.742 | -0.178 | -0.0582 | -0.639 | 0.129 | 0.114 | 0.163 | 0.0713

From the supplement of paper PMC7826260
